Assay results from patent US20250270339A1 (Alector, published 2025).

Target: T1, Cyno TfR ECD Avi-His (cynomolgus macaque, UniProt Q5RDH6 89-760 (Pongo abelii entry), biotin on the Avi tag (BirA) where captured on streptavidin)
T1 construct: also called Cyno TfR Avi-His; cyno TfR Avi-His
T1 chain: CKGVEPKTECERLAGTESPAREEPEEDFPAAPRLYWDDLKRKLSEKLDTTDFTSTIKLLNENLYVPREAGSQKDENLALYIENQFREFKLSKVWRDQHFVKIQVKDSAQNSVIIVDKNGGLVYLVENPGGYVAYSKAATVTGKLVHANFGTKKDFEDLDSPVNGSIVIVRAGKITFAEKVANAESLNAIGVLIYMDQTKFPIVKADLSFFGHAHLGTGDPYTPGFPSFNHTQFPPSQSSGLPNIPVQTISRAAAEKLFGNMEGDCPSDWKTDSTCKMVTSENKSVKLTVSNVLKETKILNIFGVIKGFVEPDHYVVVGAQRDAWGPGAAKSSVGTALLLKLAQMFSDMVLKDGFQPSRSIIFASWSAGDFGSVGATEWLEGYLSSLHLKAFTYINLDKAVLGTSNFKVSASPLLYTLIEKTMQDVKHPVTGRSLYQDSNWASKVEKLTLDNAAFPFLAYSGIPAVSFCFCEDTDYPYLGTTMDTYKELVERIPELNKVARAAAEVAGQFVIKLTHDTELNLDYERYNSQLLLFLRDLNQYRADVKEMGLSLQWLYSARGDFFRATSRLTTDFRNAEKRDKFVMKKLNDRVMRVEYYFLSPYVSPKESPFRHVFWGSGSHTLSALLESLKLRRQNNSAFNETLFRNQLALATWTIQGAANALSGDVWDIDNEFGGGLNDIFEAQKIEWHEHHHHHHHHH
Test: BLI (GatorBio), biotinylated TfR on probe

B1: TfR9.1B.39.39 2+1 anti-TfR bispecific antibody (bispecific antibody, human IgG1, kappa)
heavy 1: EVRLLESGGGLVQPGGSLRLSCAASGFTFSNYAMGWVRQAPGKGLEWVSAISGSGGSTYYADSVKGRFTTSRDDSKNALYLQMNSLRAEDTAVYYCARGGPGWYAADVWGQGTTVTVSSASTKGPSVFPLAPSSKSTSGGTAALGCLVKDYFPEPVTVSWNSGALTSGVHTFPAVLQSSGLYSLSSVVTVPSSSLGTQTYICNVNHKPSNTKVDKKV[here human IgG1 Fc with changes without letters]GGGGSGGGGSGGGGSQVQLVQSGAEVKKPGASVKVSCKASGYTFTEYAMHWVRQAPGQGLEWMGGINPSFGGTSYNQKFKGRVTMTVDTSTSTAYMELSSLRSEDTAVYYCASQGWLLRGGDYWGQGTLVTVSSGGSEGKSSGSGSESKSTGGSDVVMTQSPLSLPVTLGQPASISCKASQSLLDEEGKTYLNWLQQRPGQSPRRLIYLVSKLDSGVPDRFSGSGSGTDFTLKISRVEAEDVGVYYCWQGTHFPQTFGGGTKVEIK
heavy 2: EVRLLESGGGLVQPGGSLRLSCAASGFTFSNYAMGWVRQAPGKGLEWVSAISGSGGSTYYADSVKGRFTTSRDDSKNALYLQMNSLRAEDTAVYYCARGGPGWYAADVWGQGTTVTVSS[here human IgG1 constant region with changes without letters]
light: DIQMTQSPSSLSASVGDRVTITCRASQSISSYLNWYQQKPGKAPKLLIYAASSLQSGVPSRFSGSGSGTDFTLTISSLQPEDFATYYCQQADLPAFAFGGGTKVEIKRTVAAPSVFIFPPSDEQLKSGTASVVCLLNNFYPREAKVQWKVDNALQSGNSQESVTEQDSKDSTYSLSSTLTLSKADYEKHKVYACEVTHQGLSSPVTKSFNRGEC
notes: 2+1
- binding result: binds

B2: TfR9.1B.39.40 2+1 anti-TfR bispecific antibody (bispecific antibody, human IgG1, kappa)
heavy 1: EVRLLESGGGLVQPGGSLRLSCAASGFTFSNYAMGWVRQAPGKGLEWVSAISGSGGSTYYADSVKGRFTTSRDDSKNALYLQMNSLRAEDTAVYYCARGGPGWYAADVWGQGTTVTVSSASTKGPSVFPLAPSSKSTSGGTAALGCLVKDYFPEPVTVSWNSGALTSGVHTFPAVLQSSGLYSLSSVVTVPSSSLGTQTYICNVNHKPSNTKVDKKV[here human IgG1 Fc with changes without letters]GGGGSGGGGSGGGGSQVQLVQSGAEVKKPGASVKVSCKASGYTFTEYAMHWVRQAPGQGLEWMGGINPKEGGTSYNQKFKGRVTMTVDTSTSTAYMELSSLRSEDTAVYYCASQGWLLRGGDYWGQGTLVTVSSGGSEGKSSGSGSESKSTGGSDVVMTQSPLSLPVTLGQPASISCKASQSLLDEDQKTYLNWLQQRPGQSPRRLIYLVSKLDSGVPDRFSGSGSGTDFTLKISRVEAEDVGVYYCWQGTHFPQTFGGGTKVEIK
heavy 2: EVRLLESGGGLVQPGGSLRLSCAASGFTFSNYAMGWVRQAPGKGLEWVSAISGSGGSTYYADSVKGRFTTSRDDSKNALYLQMNSLRAEDTAVYYCARGGPGWYAADVWGQGTTVTVSS[here human IgG1 constant region with changes without letters]
light: B1 light
notes: 2+1
- Kd: 570 nM

B3: TfR15.WH7.1 2+1 anti-TfR bispecific antibody (bispecific antibody, human IgG1, kappa)
heavy 1: EVRLLESGGGLVQPGGSLRLSCAASGFTFSNYAMGWVRQAPGKGLEWVSAISGSGGSTYYADSVKGRFTTSRDDSKNALYLQMNSLRAEDTAVYYCARGGPGWYAADVWGQGTTVTVSSASTKGPSVFPLAPSSKSTSGGTAALGCLVKDYFPEPVTVSWNSGALTSGVHTFPAVLQSSGLYSLSSVVTVPSSSLGTQTYICNVNHKPSNTKVDKKV[here human IgG1 Fc with changes without letters]GGGGSGGGGSGGGGSQVQLVQSGAEVKKPGASVKVSCKASGYTFTSYYMHWVRQAPGQGLEWMGNIYPGSGSSNYAQKFQGRVTMTRDTSTSTVYMELSSLRSEDTAVYYCTRSSYYGNFDTMDNWGQGTTVTVSSGGSEGKSSGSGSESKSTGGSDIQLTQSPSFLSASVGDRVTITCRASSSIRYMNWYQQKPGKAPKRLIYDTSTLQSGVPSRFSGSGSGTEFTLTISSLQPEDFATYYCHQRSSYPWTFGGGTKVEIK
heavy 2: EVRLLESGGGLVQPGGSLRLSCAASGFTFSNYAMGWVRQAPGKGLEWVSAISGSGGSTYYADSVKGRFTTSRDDSKNALYLQMNSLRAEDTAVYYCARGGPGWYAADVWGQGTTVTVSS[here human IgG1 constant region with changes without letters]
light: B1 light
notes: 2+1
- Kd: 100 nM

B4: TfR15.WH12.1 2+1 anti-TfR bispecific antibody (bispecific antibody, human IgG1, kappa)
heavy 1: EVRLLESGGGLVQPGGSLRLSCAASGFTFSNYAMGWVRQAPGKGLEWVSAISGSGGSTYYADSVKGRFTTSRDDSKNALYLQMNSLRAEDTAVYYCARGGPGWYAADVWGQGTTVTVSSASTKGPSVFPLAPSSKSTSGGTAALGCLVKDYFPEPVTVSWNSGALTSGVHTFPAVLQSSGLYSLSSVVTVPSSSLGTQTYICNVNHKPSNTKVDKKV[here human IgG1 Fc with changes without letters]GGGGSGGGGSGGGGSQVQLVQSGAEVKKPGASVKVSCKASGYTFTSYYMHWVRQAPGQGLEWMGNIYPGSGSSNYAQKFQGRVTLTVDTSTSTVYMELSSLRSEDTAVYYCTRSSYYGNFDTMDNWGQGTTVTVSSGGSEGKSSGSGSESKSTGGSDIQMTQSPSSLSASVGDRVTITCRASSSIRYLNWYQQKPGKAPKRLIYDTSSLQSGVPSRFSGSGSGTDFTLTISSLQPEDFATYYCHQRSSYPWTFGGGTKVEIK
heavy 2: EVRLLESGGGLVQPGGSLRLSCAASGFTFSNYAMGWVRQAPGKGLEWVSAISGSGGSTYYADSVKGRFTTSRDDSKNALYLQMNSLRAEDTAVYYCARGGPGWYAADVWGQGTTVTVSS[here human IgG1 constant region with changes without letters]
light: B1 light
notes: 2+1
- binding result: binds

B5: TfR15.WH8.1 2+1 anti-TfR bispecific antibody (bispecific antibody, human IgG1, kappa)
heavy 1: EVRLLESGGGLVQPGGSLRLSCAASGFTFSNYAMGWVRQAPGKGLEWVSAISGSGGSTYYADSVKGRFTTSRDDSKNALYLQMNSLRAEDTAVYYCARGGPGWYAADVWGQGTTVTVSSASTKGPSVFPLAPSSKSTSGGTAALGCLVKDYFPEPVTVSWNSGALTSGVHTFPAVLQSSGLYSLSSVVTVPSSSLGTQTYICNVNHKPSNTKVDKKV[here human IgG1 Fc with changes without letters]GGGGSGGGGSGGGGSQVQLVQSGAEVKKPGASVKVSCKASGYTFTSYYMHWVRQAPGQGLEWMGNIYPGSGSSNYAQKFQGRVTMTRDTSTSTVYMELSSLRSEDTAVYYCTRSSYYGNFDTMDNWGQGTTVTVSSGGSEGKSSGSGSESKSTGGSEIVLTQSPATLSLSPGERATLSCRASSSIRYMNWYQQKPGQAPRRLIYDTSNRATGIPARFSGSGSGTDFTLTISSLEPEDFAVYYCHQRSSYPWTFGGGTKVEIK
heavy 2: EVRLLESGGGLVQPGGSLRLSCAASGFTFSNYAMGWVRQAPGKGLEWVSAISGSGGSTYYADSVKGRFTTSRDDSKNALYLQMNSLRAEDTAVYYCARGGPGWYAADVWGQGTTVTVSS[here human IgG1 constant region with changes without letters]
light: B1 light
notes: 2+1
- Kd: 37 nM
